Results on one molecule are retold here after patent publication US20240277663A1, “PHARMACEUTICAL KITS AND USES THEREOF FOR TREATING COLORECTAL CANCER” (priority 2023, published 2024).

Experiment [1] relates to CT26 allograft tumor (MSS subtype colorectal carcinoma).
For experiment [2] the test system is unchanged. Kind of experiment: CT26 subcutaneous tumor model, HDAC inhibitors with or without RMP1-14. To be noted: Day 22 after treatments; ABT-301 100 mg/kg PO; vorinostat 100 mg/kg PO; citarinostat 50 mg/kg IP; RMP1-14 200 μg IP.
Experiment [3] has the same test system. Kind of experiment: CT26 subcutaneous tumor model, multiple doses of ABT-301 with or without avelumab. Format: in vivo, mouse. To be noted: Day 24 after treatments, alone or + avelumab 200 μg, means ± SEM. As to the method: Treatments were administered for indicated period (24 days) or until humane endpoints. Ten mice were used in each group. […] Avelumab was prepared with PBS.

Experiment [4] deals with MC-38 allograft tumor (MSI-H subtype colorectal carcinoma).
The mark [5] stands for this setting: Day 28 after treatments, ABT-301 100 mg/kg PO, avelumab 100 μg IP, means ± SEM.

Where two headings read alike, the source gives them in different places. Marks after values point to notes of the source that are not given here.

Turning to `O=C(/C=C/c1ccc2c(c1)CCN2S(=O)(=O)c1ccccc1)NO` [ABT-301, (E)-N-hydroxy-3-(1-(phenylsulfonyl)-indolin-5-yl)-acrylamide], the Median survival was 33.5 days in experiment [1] (CT26 allograft tumor mice, over the entire study, ABT-301 100 mg/kg PO QD, avelumab 100 μg IP BIW) and 27 days in experiment [4] (MC-38 allograft tumor mice, over the entire study, ABT-301 100 mg/kg PO QD, avelumab or RMP1-14 200 μg IP BIW). Besides, the “TGI (tumor growth inhibition)” value stood at 39.34 ± 26.01% in experiment [1] (setting [5]) and 53.5% in experiment [2]. Besides, the Tumor size in experiment [1] (setting [5]) is 759.26 ± 285.30 mm^3; in experiment [3] (ABT-301 25 mg/kg), 482.19 ± 106.55 mm^3; in experiment [3] (ABT-301 50 mg/kg) it was 384.31 ± 62.20* mm^3; in experiment [3] (ABT-301 100 mg/kg), 391.42 ± 73.97* mm^3; in experiment [4] (Day 25 after treatments, ABT-301 100 mg/kg PO, avelumab 200 μg IP, RMP1-14 200 μg IP, means ± SEM), 1701.49 ± 321.46 mm^3.
